# About 2,200 (0.71%) of roughly 310,000 compounds showed an effect of 50% or more. Effects have a minus sign here. The list shows a part of the results.
# Target: human ether-à-go-go-related gene (hERG) potassium channel (human, UniProt Q12809)
# Experiment: primary screen, population patch clamp on CHO cells stably expressing hERG
# Sequence of human ether-à-go-go-related gene (hERG) potassium channel (Q12809 whole entry, looked up): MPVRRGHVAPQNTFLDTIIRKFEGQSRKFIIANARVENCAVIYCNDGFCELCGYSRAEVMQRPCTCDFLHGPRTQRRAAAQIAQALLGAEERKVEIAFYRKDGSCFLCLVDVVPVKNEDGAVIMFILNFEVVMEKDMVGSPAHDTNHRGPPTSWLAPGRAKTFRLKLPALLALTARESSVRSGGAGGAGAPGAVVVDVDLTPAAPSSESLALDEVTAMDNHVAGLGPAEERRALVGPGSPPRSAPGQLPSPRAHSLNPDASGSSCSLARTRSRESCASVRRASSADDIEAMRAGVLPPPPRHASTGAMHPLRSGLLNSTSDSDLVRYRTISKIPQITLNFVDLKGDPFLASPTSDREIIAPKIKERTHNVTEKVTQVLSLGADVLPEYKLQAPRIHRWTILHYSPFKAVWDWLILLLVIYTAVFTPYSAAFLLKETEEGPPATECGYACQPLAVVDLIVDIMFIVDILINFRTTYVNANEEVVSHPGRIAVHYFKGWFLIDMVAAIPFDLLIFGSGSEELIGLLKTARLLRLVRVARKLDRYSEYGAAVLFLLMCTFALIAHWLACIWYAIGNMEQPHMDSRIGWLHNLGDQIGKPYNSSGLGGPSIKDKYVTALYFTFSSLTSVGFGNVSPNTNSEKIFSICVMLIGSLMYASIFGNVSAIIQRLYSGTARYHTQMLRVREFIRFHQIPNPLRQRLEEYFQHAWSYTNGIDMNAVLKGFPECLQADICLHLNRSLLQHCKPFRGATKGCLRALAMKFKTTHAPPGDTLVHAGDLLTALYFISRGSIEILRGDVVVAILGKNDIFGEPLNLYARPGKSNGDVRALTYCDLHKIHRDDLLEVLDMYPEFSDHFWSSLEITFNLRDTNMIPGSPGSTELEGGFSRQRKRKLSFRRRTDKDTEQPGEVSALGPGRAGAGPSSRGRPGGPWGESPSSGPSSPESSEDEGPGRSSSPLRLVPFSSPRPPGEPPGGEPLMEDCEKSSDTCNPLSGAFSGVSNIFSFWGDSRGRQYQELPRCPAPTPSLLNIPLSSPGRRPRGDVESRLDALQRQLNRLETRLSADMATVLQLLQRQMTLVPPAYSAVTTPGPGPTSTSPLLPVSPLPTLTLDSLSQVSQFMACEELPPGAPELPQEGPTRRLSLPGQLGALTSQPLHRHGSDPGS
row,SMILES,"hERG current change (%, negative = inhibition) at 1uM [%]"
1,CCOc1ccc(OCCCC(=O)Nc2cc(Cl)ccc2-n2cncn2)cc1,-15.8
2,CCC(=O)NC1(Cc2ccc(O)cc2)CCCCC1,9.16
3,O=C(c1ccccc1)N(c1ccccc1)C1C=CS(=O)(=O)C1 (centres unmarked),6.8
4,CCCOc1nc2c(c(=O)n(C)c(=O)n2C)n1C,-0.0628
5,CCCCOP(=O)(c1ccc(N(C)C)cc1)C(O)c1cc(OC)ccc1OC (centres unmarked),15.6
6,CCCCc1cc(=O)oc2c(CN(C)C)c(O)c(Cl)cc12,7.87
7,O=C(N/N=C\c1ccccc1F)c1ccc(-c2ccccc2)cc1,12.2
8,Cc1cc(S(=O)(=O)NCCCN2CCOCC2)c(Cl)cc1Cl,6.96
9,N#CC1=C(N)Oc2n[nH]c(-c3ccccc3)c2C1c1ccsc1 (centres unmarked),7.75
10,COc1ccc(-c2c(C#Cc3ccsc3)c3cc(-c4cccc5[nH]ccc45)ccc3n2C)cc1,11.7
11,CCOC(=O)c1cccc(NC(=O)c2cc3sccc3n2C)c1,-10.4
12,CCOCCCNC(=O)CCCOc1ccccc1,-4.54
13,COCCNC(=O)c1ccc2c(=O)n(Cc3ccco3)c(SCC(=O)NC3CCCCC3)nc2c1,-15.3
14,CC(=O)Nc1ccc(NC(=O)C(=O)c2cn(CC(=O)N3CCCCC3)c3ccccc23)cc1,9.75
15,CC(=O)Nc1cccc(NC(=O)CSc2nc3ccccc3o2)c1,-0.484
16,O=c1c(-c2n[nH]c(=S)n2-c2ccccc2)cccn1Cc1cccc(Cl)c1,15.8
17,CCCCc1nnc(NC(=O)CCSc2ccccc2)s1,-2.45
18,CCc1ccc(N=CC2=C(O)CC(c3ccco3)CC2=O)cc1 (centres unmarked),6.9
19,Cc1cc(C)n2nc(C(=O)Nc3ccc4c(c3)CCC4)nc2n1,3.95
20,CCCc1ccc(OC(=O)c2cccs2)cc1,2.87
21,COc1ccc(CNC(=O)CN(Cc2ccccc2Cl)C(=O)c2csnn2)cc1,2.58
22,Cc1ccc(-n2c(SCC(=O)N/N=C/c3ccccc3C(=O)O)nnc2-c2ccc(Cl)cc2)cc1,5.34
23,CCN(CC)C(=O)Cn1cc(S(=O)(=O)CC(=O)N2CCOCC2)c2ccccc21,7.45

row,SMILES,"hERG current change (%, negative = inhibition) at 1uM [%]"
1,Cc1cc(C)nc(NC(=O)c2ccc(Br)s2)n1,12.7
2,O=C(O)C1CC=CCC1C(=O)c1ccccc1 (centres unmarked),0.206
3,CC1CCN(C(=O)c2cc(-c3ccco3)on2)CC1,4.2
4,CC(C)(C)c1cc(NC(=O)c2ccc(OC3CCCC3)cc2)no1,16.6
5,O=C(NCc1ccccc1F)C1CCCN1C(=O)Nc1cccc(F)c1 (centres unmarked),9.43
6,N/C(=N\OC(=O)c1cc([N+](=O)[O-])ccc1Cl)c1cccnc1,11.6
7,OC(COc1cccc2ccccc12)CN1CCN(c2cccc(Cl)c2)CC1 (centres unmarked),8.8
8,Cc1ccc(Cl)cc1NC(=O)c1cnn2c1NC(c1ccco1)CC2C(F)(F)F (centres unmarked),-1.95
9,OCCC1CN(Cc2cn[nH]c2C2CCCCC2)CCN1Cc1ccccc1 (centres unmarked),6.61
10,CC(C)(C)NS(=O)(=O)c1ccc(NS(=O)(=O)c2ccc(F)cc2)cc1,9.01
11,O=C1CNC(=O)/C1=C\N1CCCCC1,11.6
12,C/C(=N\NC(=O)c1c(Cl)c(C)nn1C)c1cccc(NC(=O)COc2ccc(Cl)cc2)c1,9.45
13,COc1ccc(C(=O)NCCc2cc3c(OC)ccc(OC)c3[nH]c2=O)cc1OC,8.19
14,O=c1[nH]c(CN2CCN(S(=O)(=O)c3ccc4ccccc4c3)CC2)nc2ccccc12,7.63
15,CC(C(=O)NCC1CCCCC1)N(C)Cc1cccc(Cl)c1 (centres unmarked),12.3
16,CC(=O)c1cccc(NC(=O)COc2ccccc2C(=O)c2cc(C#N)c(=O)n(C3CCCCC3)c2)c1,-5.79
17,CC1CCCN(C(=O)C2CCN(c3ncnc4c3nc3n4CCCCC3)CC2)C1 (centres unmarked),13.7
18,C/C(=N\O)c1ccc(Cl)c(Cl)c1,15.7
19,O=C(c1ccc2ccccc2c1)N1CCN(Cc2ccccc2)CC1,8.13
20,CN(C)c1ccc(NC(=O)CC2NCCNC2=O)cc1 (centres unmarked),-2.06
21,Cl.N[C@@H](CO)c1cn([C@@H](Cc2cc3ccccc3[nH]2)C(=O)N2CCNCC2)nn1,12.4
22,Cc1ccccc1CN1CCC(Oc2ccc(C(=O)N3CCCC3)cc2)CC1,12.2
23,Cc1cccc(C(=O)NNC(=O)c2cccc(C)c2)c1,13

row,SMILES,"hERG current change (%, negative = inhibition) at 1uM [%]"
1,CC(C)CCN1C(=O)CCC1(C)C(=O)NC1CCCCCC1 (centres unmarked),-8.55
2,Cc1ccsc1-c1nc(CSCC(=O)N2CCC3(CC2)OCCO3)c(C)o1,8.72
3,COCCn1nnnc1CN1CCOCC1.Cl,11.7
4,O=C1NC(=O)C(=Cc2ccc(-c3ccc(S(=O)(=O)N4CCOCC4)cc3)o2)C(=O)N1,16.4
5,Cc1cccc(CN2CCN(Cc3cccc4nonc34)CC2CCO)n1 (centres unmarked),7.4
6,COc1cc(NC(=O)C2CC2)c(C(=O)O)cc1OC,9.08
7,Cc1cc(Cl)n2ncc(-c3ccccc3)c2n1,10.1
8,O=C(/C=C/c1ccco1)Nc1cccnc1,3.48
9,COC(=O)CCc1c(C)c(C(=O)c2cc(F)c(F)c(F)c2F)c2ccccn12,12.3
10,O=C(c1ccco1)c1cn(CC(=O)N2CCCCC2)c2ccccc12,3.73
11,CC(=O)Nc1sc(C)c(C)c1C(=O)OCC(=O)N(Cc1ccccc1)C(C)C,10.8
12,CC(C)CNC(=O)NC(=O)COC(=O)C1CSC2(c3ccc(F)cc3)CCC(=O)N12 (centres unmarked),10.8
13,CCn1c(O)c(N=NC(=O)c2cccnc2)c2cc(Br)ccc21,7.67
14,CN(C)c1ccc(C(CC(=O)O)NC(=O)c2ccc(Cl)cc2)cc1 (centres unmarked),-3.81
15,CCn1cc(C(=O)NCc2ccncc2)c(=O)c2cc(F)c(N3CCN(C(=O)c4ccco4)CC3)cc21,-33.1
16,O=C(O)c1ccc(OCc2occc2C(=O)O)cc1,7.63
17,COC(=O)C1C2C=CC3(CN(Cc4ccco4)C(=O)C13)O2 (centres unmarked),17.6
18,CC(C)(C)NS(=O)(=O)c1ccc(OCC(=O)N2CCN(Cc3ccccc3)CC2)cc1,3.49
19,CC(=O)c1cccc(N(CC(=O)Nc2ccccc2F)S(C)(=O)=O)c1,13.2
20,CCc1cc2c(=O)c(-c3nc4ccccc4[nH]3)coc2c(CN2CCCCC2)c1O,-4.7
21,COc1cc(CNCc2ccc(SC)cc2)cc(OC)c1,6.88
22,CCCOc1ccc(NC(=O)c2cc3cc(C)ccc3[nH]2)cc1,15.1
23,Nc1ccccc1Nc1ccncc1[N+](=O)[O-],11.9

row,SMILES,"hERG current change (%, negative = inhibition) at 1uM [%]"
1,O=C(NN/C(=N/S(=O)(=O)c1ccc(Cl)cc1)c1ccccc1)c1cccc(Cl)c1,11.7
2,C[C@H]1CCC(=O)N([C@H](CSc2ccc(Br)cc2)Cc2ccccc2)CC1,12.2
3,COc1ccc(S(=O)(=O)N2CCC(C(=O)NC3CCCC3)CC2)cc1C,9.67
4,COc1ccc(OC)c(-n2c(O)c(C=NCc3ccc4c(c3)OCO4)c(=O)[nH]c2=O)c1,8.24
5,CC(=O)O[C@@H]1[C@H](OC(=O)CC(C)C)c2c(ccc3ccc(=O)oc23)OC1(C)C,-22.3
6,COC(=O)c1ccc(N(C(=O)c2ccco2)C(C(=O)NC2CCCC2)c2ccco2)cc1 (centres unmarked),0.201
7,COc1cc(Cl)c(S(=O)(=O)NCCCN2CCOCC2)cc1Cl,9.83
8,Cc1noc(C)c1COc1ccc(CC(=O)NCc2ccccc2)cc1,7.7
9,CCCc1[nH]nc2c1C(CCc1ccccc1)C(C#N)=C(N)O2 (centres unmarked),18.3
10,O=C(NCc1cccnc1)C(=O)NCC1CCCO1 (centres unmarked),17.7
11,CCn1cc(CN2CCCC(C(=O)c3sccc3C)C2)cn1 (centres unmarked),-2.01
12,N#CC1=C(N)Oc2n[nH]c(-c3ccncc3)c2C1c1ccsc1 (centres unmarked),-2.44
13,CSc1ncc(C(=O)Nc2cccc(S(N)(=O)=O)c2)n1-c1ccccc1,26.1
14,Cc1ccc(-c2nnn(CC(=O)N(c3ccccc3F)C(C(=O)NCC3CCCO3)c3c[nH]c4ccccc34)n2)cc1 (centres unmarked),-1.17
15,CC1(C)CN(c2ccc(-c3ccnc4ncnn34)cc2)C1=O,9.34
16,CCN(C(=O)CSc1nc2cc(C(F)(F)F)ccc2n1Cc1ccccc1)C1CCS(=O)(=O)C1 (centres unmarked),8.83
17,O=C(O)c1cc2c(o1)CCC/C2=N\O,8.6
18,CC(=O)Nc1ccc(S(=O)(=O)Nc2cc(C)cn(Cc3ccc(C)cc3)c2=O)cc1,10.5
19,Cc1ccccc1NC1=C(Cl)C(=O)OC1NC(=O)c1ccccc1 (centres unmarked),14.9
20,CC1CC(C)CN(CCOc2cccc3ccccc23)C1 (centres unmarked),6.81

# Reference: PMC4336329 (PLoS ONE, 2015)
